The whole screen tested about 310,000 compounds, of which about 2,200 (0.71%) showed an effect of 50% or more. Effects have a minus sign here. The list shows a part of the results.
Target: human ether-à-go-go-related gene (hERG) potassium channel (human, UniProt Q12809)
Test: primary screen, population patch clamp on CHO cells stably expressing hERG

human ether-à-go-go-related gene (hERG) potassium channel, sequence (Q12809 whole entry, looked up): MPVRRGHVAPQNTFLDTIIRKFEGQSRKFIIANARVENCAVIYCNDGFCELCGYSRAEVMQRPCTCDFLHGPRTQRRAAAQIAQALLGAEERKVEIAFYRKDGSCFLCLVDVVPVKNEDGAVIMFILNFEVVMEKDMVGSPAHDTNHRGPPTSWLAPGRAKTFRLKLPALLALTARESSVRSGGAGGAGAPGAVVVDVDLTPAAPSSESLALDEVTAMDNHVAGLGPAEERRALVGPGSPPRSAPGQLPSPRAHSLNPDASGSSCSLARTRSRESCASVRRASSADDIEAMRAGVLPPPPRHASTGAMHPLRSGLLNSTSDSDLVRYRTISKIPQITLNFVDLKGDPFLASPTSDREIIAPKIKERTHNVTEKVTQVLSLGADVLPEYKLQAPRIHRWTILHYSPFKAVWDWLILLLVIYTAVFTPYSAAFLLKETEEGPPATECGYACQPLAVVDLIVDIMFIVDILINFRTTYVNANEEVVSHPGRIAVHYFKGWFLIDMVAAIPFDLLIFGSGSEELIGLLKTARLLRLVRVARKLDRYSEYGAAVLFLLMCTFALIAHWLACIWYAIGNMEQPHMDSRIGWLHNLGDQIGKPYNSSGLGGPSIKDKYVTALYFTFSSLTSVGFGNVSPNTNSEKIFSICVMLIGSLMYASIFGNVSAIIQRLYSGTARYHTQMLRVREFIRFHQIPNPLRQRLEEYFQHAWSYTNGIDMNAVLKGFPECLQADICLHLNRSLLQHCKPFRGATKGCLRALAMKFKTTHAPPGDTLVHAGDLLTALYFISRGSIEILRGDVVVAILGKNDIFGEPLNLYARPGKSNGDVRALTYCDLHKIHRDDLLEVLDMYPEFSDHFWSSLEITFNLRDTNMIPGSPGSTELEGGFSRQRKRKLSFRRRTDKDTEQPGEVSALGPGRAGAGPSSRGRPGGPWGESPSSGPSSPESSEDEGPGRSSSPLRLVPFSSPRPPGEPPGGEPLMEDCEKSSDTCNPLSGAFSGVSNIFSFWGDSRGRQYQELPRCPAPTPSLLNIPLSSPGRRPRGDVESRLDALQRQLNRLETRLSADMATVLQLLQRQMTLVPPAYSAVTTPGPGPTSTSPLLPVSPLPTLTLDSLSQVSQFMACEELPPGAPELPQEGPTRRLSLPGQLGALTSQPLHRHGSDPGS

SMILES | hERG current change (%, negative = inhibition) at 1uM
C=CCn1c(O)c(/C=N/NC(=O)CCCC)c(=O)[nH]c1=S | 8.61%
COc1ccc(NS(=O)(=O)c2cccc(NC(=O)c3ccccn3)c2)cc1 | 8.33%
O=C(CSc1ncn[nH]1)Nc1ccc(Br)cc1F | 10%
Cc1nn(-c2ccccn2)c2c1C(c1ccccc1Cl)C1=C(N2)c2ccccc2C1=O (centres unmarked) | 13.9%
COc1ccccc1/C=C1/C(=O)N(c2cc(C)cc(C)c2)C(c2cccc([N+](=O)[O-])c2)S1(=O)=O (centres unmarked) | 8.91%
CC(C)C(=O)NC(=S)N(Cc1ccccc1)Cc1ccccc1 | 5.69%
CCCC(=O)OCC(=O)Nc1ccccc1Sc1ccccc1 | 11.1%
Cc1nn(Cc2c(Cl)cccc2Cl)c(C)c1C(=O)NCc1ccc(C)n1C | 10.9%
O=C(COC(=O)Cc1n[nH]c(=O)c2ccccc12)Nc1ccc(Cl)cc1F | 9.45%
O=C(CNC(=O)c1ccc(Cl)cc1)OCC(=O)c1ccc2c(c1)OCCO2 | 5.82%
CN1CCN(C(=O)C2CCN(S(=O)(=O)c3cnc[nH]3)CC2)CC1 | 9.97%
O=C(N/N=C/c1cccc(F)c1)c1cc(-c2ccco2)nc2ccccc12 | 10.3%
O=C(CN1C(=O)C2C3C=CC(C3)C2C1=O)NCc1ccc2c(c1)OCO2 (centres unmarked) | 11.4%
COc1ccc(CN(C)C(=O)Cc2ccc(OC)c(S(=O)(=O)N3CCOCC3)c2)cc1 | 2.67%
COc1ccc(OC)c(NP(=O)(Oc2ccc(Cl)cc2)Oc2ccc(Cl)cc2)c1 | 9.77%
CC(Cc1ccccc1)C(=O)N1CCN(C)CC1 (centres unmarked) | 7.74%
CC(=O)N1c2ccc(S(=O)(=O)N3CCCC(C(=O)NCc4ccccc4Cl)C3)cc2CC1C (centres unmarked) | 8.84%
CCOC(=O)c1c(NC(=O)Cn2nc([N+](=O)[O-])c(Br)c2C)sc2c1CCC(C)C2 (centres unmarked) | 7.71%
CCCCc1[nH]c(=O)c(C#N)c2c1CSC(C)(C)C2 | 20.1%
CC(C)(C)OC(=O)N[C@@H](Cc1ccccc1)C(=O)NCC1CCC(C(=O)N[C@@H](CC(=O)O)C(=O)O)CC1 (some centres unmarked) | 20.9%
COCCNC(=O)CN(CCc1ccccc1)S(=O)(=O)c1ccc(Br)cc1 | 10.1%
CSc1ncccc1C(=O)OCC(=O)c1cccc(Br)c1 | 5.99%
COc1ccc(N(CC(O)Cn2c(C)nc3ccccc32)S(=O)(=O)c2ccc(C)cc2)cc1 (centres unmarked) | 0.744%
Nc1c2c(nc3sc4c(c13)CCCCC4)CCCCC2 | -11%
COc1ccc(CCNC(=O)/C=C/c2ccc(S(=O)(=O)N3CCOCC3)cc2)cc1 | -19.4%
COc1ccc(-c2oc3ncn4nc(COc5ccccc5)nc4c3c2-c2ccc(OC)cc2)cc1 | -1.56%
Nc1[nH]c2cc([N+](=O)[O-])ccc2c1-c1ccccn1 | 15.8%

SMILES | hERG current change (%, negative = inhibition) at 1uM
Cc1nc(SCc2ccccc2F)c2oc3ccccc3c2n1 | 17.7%
Cc1cccc(/C=C/c2onc(C)c2S(=O)(=O)N2CCC(C(=O)N3CCCCC3)CC2)c1 | 16.7%
Cc1cccc2sc(N(CCCN(C)C)C(=O)CN3C(=O)c4ccccc4C3=O)nc12.Cl | 9.95%
COC(=O)C1=C(C)NC(C)=C(C(=O)OC)C1C(=O)OC1CCCCC1=O (centres unmarked) | 11.6%
O=CN1CCN(C(=O)c2ccc3c(c2)OCO3)CC1 | 10.3%
CCCc1cc(=O)[nH]c2nnc(SCC(=O)Nc3nccs3)n12 | 6.79%
O=C(Oc1ccc2c3c(c(=O)oc2c1)CCC3)c1ccccc1[N+](=O)[O-] | 3.77%
Cc1ccc(S(=O)(=O)NC(=O)NCCCCNC(=O)NS(=O)(=O)c2ccc(C)cc2)cc1 | -4.19%
CC(C)N(Cc1nc(-c2ccc(Cl)cc2)no1)C(=O)C(c1ccccc1)c1ccccc1 | 2.68%
Cc1cc(NC(=O)C2CCCN(S(=O)(=O)c3c(C)noc3C)C2)no1 (centres unmarked) | 17.4%
COc1ccc(N2CCN(c3nc(=S)n(-c4ccccc4)c(C)c3C(C)=O)CC2)cc1 | 10.2%
O=C(NNC(=O)C1CC(=O)N(c2ccc3c(c2)OCCO3)C1)c1ccc(F)cc1 (centres unmarked) | 3.92%
Cc1ccc(N=C2NC(=O)/C(=C/c3cccn3C)S2)cc1 | 6.27%
Cc1ccccc1CN(C)CC(=O)Nc1cccc(S(=O)(=O)N(C)c2ccccc2)c1 | 5.5%
O=C(OCc1csc(-c2ccccc2)n1)C1=NN(c2ccccc2)C(=O)CC1 | 11.3%
CC(C)n1c(SCC(=O)N2CCN(C(=O)c3ccco3)CC2)nc2c1c(=O)n(C)c(=O)n2C | -29.4%
Cc1[nH]c2c(C)cccc2c1CN1CCC(CO)(Cc2ccccc2)CC1 | -11.4%
COC(=O)CCC(=O)Nc1cc(S(=O)(=O)Nc2ccc(Cl)cc2)ccc1N1CCOCC1 | -5.33%
CC(C)(C)C(=O)Nc1ccccc1C(=O)OCC(=O)c1ccc2c(c1)OCCO2 | 11.3%
COc1ccc(CCN2CC(C(=O)OC(C)C(=O)Nc3cccc(Cl)c3)CC2=O)cc1OC (centres unmarked) | 3.22%
CC(C(=O)Nc1ccc(OCc2ccccc2)cc1)N1CCCC1 (centres unmarked) | 1.5%
Cc1ccc(Cn2ccc(O)c(Cc3ccccc3)c2=O)cc1 | 9%
COc1ccc(CCNC(=O)CCc2nc3sc4c(c3c(=O)[nH]2)CCCC4)cc1 | 9.73%
O=C(CC12CC3CC(CC(C3)C1)C2)NC(=S)NCc1ccco1 | 6.74%
O=C(/C=C/c1ccc2ccccc2n1)N1CCN(S(=O)(=O)c2ccccc2F)CC1 | 5.12%
Cc1cccc(N2CCN(S(=O)(=O)c3ccc4[nH]c(=O)c(=O)[nH]c4c3)CC2C)c1 (centres unmarked) | 8.7%

From paper PMC4336329 (PLoS ONE, 2015)
